# The supplement of paper PMC8728848
# The other results are listed elsewhere or left out.
# Legend:
# Assay in all cases: glycan array binding signal (z-score within array); higher = stronger binding
# Details in all cases: glycan notation: IUPAC condensed, linker removed; mutation: F63H
# Gal(a1-3)Gal = target: Gal(a1-3)Gal
# Outline: (§1)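 The Consortium for Functional Glycomics database supplied 3228 glycan arrays, of which those lacking an available protein sequence were dropped. The binding signal, a within-array Z-score, was averaged across arrays of the same protein sequence and across linkers. Negative scores can be read as non-binding.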
# Gal(a1-3)Gal(b1-3)GlcNAc = target: Gal(a1-3)Gal(b1-3)GlcNAc
# Outline: as §1
# [1] = target: Gal(a1-3)Gal(b1-3)GlcNAc(b1-2)Man
# Outline: as §1
# [2] = target: Gal(a1-3)Gal(b1-3)GlcNAc(b1-2)Man(a1-3)[Gal(a1-3)Gal(b1-3)GlcNAc(b1-2)Man(a1-6)]Man(b1-4)GlcNAc(b1-4)GlcNAc
# Outline: as §1
# [3] = target: Gal(a1-3)Gal(b1-3)GlcNAc(b1-3)GalNAc
# Outline: as §1
# [4] = target: Gal(a1-3)Gal(b1-3)GlcNAc(b1-6)GalNAc
# Outline: as §1
# [5] = target: Gal(a1-3)Gal(b1-3)[Fuc(a1-4)]GlcNAc(b1-2)Man(a1-3)[Gal(a1-3)Gal(b1-3)[Fuc(a1-4)]GlcNAc(b1-2)Man(a1-6)]Man(b1-4)GlcNAc(b1-4)GlcNAc
# Outline: as §1
# Gal(a1-3)Gal(b1-4)Glc = target: Gal(a1-3)Gal(b1-4)Glc
# Outline: as §1
# Gal(a1-3)Gal(b1-4)GlcNAc = target: Gal(a1-3)Gal(b1-4)GlcNAc
# Outline: as §1
# [6] = target: Gal(a1-3)Gal(b1-4)GlcNAc(b1-2)Man
# Outline: as §1
# [7] = target: Gal(a1-3)Gal(b1-4)GlcNAc(b1-2)Man(a1-3)[Gal(a1-3)Gal(b1-4)GlcNAc(b1-2)Man(a1-6)]Man(b1-4)GlcNAc(b1-4)GlcNAc
# Outline: as §1
# [8] = target: Gal(a1-3)Gal(b1-4)GlcNAc(b1-3)GalNAc
# Outline: as §1
# [9] = target: Gal(a1-3)Gal(b1-4)GlcNAc(b1-6)GalNAc
# Outline: as §1
# [10] = target: Gal(a1-3)Gal(b1-4)[Fuc(a1-3)]GlcNAc
# Outline: as §1
# [11] = target: Gal(a1-3)Gal(b1-4)[Fuc(a1-3)]GlcNAc(b1-2)Man(a1-3)[Gal(a1-3)Gal(b1-4)[Fuc(a1-3)]GlcNAc(b1-2)Man(a1-6)]Man(b1-4)GlcNAc(b1-4)GlcNAc
# Outline: as §1
# Gal(a1-3)GalNAc = target: Gal(a1-3)GalNAc
# Outline: as §1
# [12] = target: Gal(a1-3)[Gal(a1-4)]Gal(b1-4)GlcNAc
# Outline: as §1
# [13] = target: Gal(a1-4)Gal(b1-3)GlcNAc(b1-2)Man(a1-3)[Gal(a1-4)Gal(b1-3)GlcNAc(b1-2)Man(a1-6)]Man(b1-4)GlcNAc(b1-4)GlcNAc
# Outline: as §1
# Gal(a1-4)Gal(b1-4)Glc = target: Gal(a1-4)Gal(b1-4)Glc
# Outline: as §1
# Gal(a1-4)Gal(b1-4)GlcNAc = target: Gal(a1-4)Gal(b1-4)GlcNAc
# Outline: as §1
# [14] = target: Gal(a1-4)Gal(b1-4)GlcNAc(b1-2)Man(a1-3)[Gal(a1-4)Gal(b1-4)GlcNAc(b1-2)Man(a1-6)]Man(b1-4)GlcNAc(b1-4)GlcNAc
# Outline: as §1
# [15] = target: Gal(a1-4)Gal(b1-4)GlcNAc(b1-3)Gal(b1-4)Glc
# Outline: as §1
# Gal(a1-4)GlcNAc = target: Gal(a1-4)GlcNAc
# Outline: as §1
# Gal(a1-6)Glc = target: Gal(a1-6)Glc
# Outline: as §1
# Gal(b1-2)Gal = target: Gal(b1-2)Gal
# Outline: as §1
# Gal(b1-3)Gal = target: Gal(b1-3)Gal
# Outline: as §1
# Gal(b1-3)Gal(b1-4)GlcNAc = target: Gal(b1-3)Gal(b1-4)GlcNAc
# Outline: as §1
# Gal(b1-3)GalNAc = target: Gal(b1-3)GalNAc
# Outline: as §1
# [16] = target: Gal(b1-3)GalNAc(a1-3)[Fuc(a1-2)]Gal(b1-4)Glc
# Outline: as §1
# [17] = target: Gal(b1-3)GalNAc(a1-3)[Fuc(a1-2)]Gal(b1-4)GlcNAc
# Outline: as §1
# Gal(b1-3)GalNAc(b1-3)Gal = target: Gal(b1-3)GalNAc(b1-3)Gal
# Outline: as §1
# [18] = target: Gal(b1-3)GalNAc(b1-3)Gal(a1-4)Gal(b1-4)Glc
# Outline: as §1
# [19] = target: Gal(b1-3)GalNAc(b1-4)Gal(b1-4)Glc
# Outline: as §1
# [20] = target: Gal(b1-3)GalNAc(b1-4)[Neu5Ac(a2-3)]Gal(b1-4)Glc
# Outline: as §1
# Gal(b1-3)GlcNAc = target: Gal(b1-3)GlcNAc
# Outline: as §1
# [21] = target: Gal(b1-3)GlcNAc(a1-3)Gal(b1-4)GlcNAc
# Outline: as §1
# [22] = target: Gal(b1-3)GlcNAc(a1-6)Gal(b1-4)GlcNAc
# Outline: as §1
# Gal(b1-3)GlcNAc(b1-2)Man = target: Gal(b1-3)GlcNAc(b1-2)Man
# Outline: as §1
binder,measurement,setting,value
"AAL (Agrocybe aegerita), Q6WY08 (protein) MQGVNIYNISAGTSVDLAAPVTTGDIVTFFSSALNLNAGAGNPNNTTLNLFAENGAYLLHIAHRLQENVIIFNSRQPDGPWLVEQRVSDVANQFAGIDGKAMVTVFDHGDKYQVVINEKTVIQYTKQISGLTLSLSYNATEETSIFSTVVEAVTYTGLALEHHHHHH",glycan array binding signal (z-score),Gal(a1-3)Gal,-0.04
same,glycan array binding signal (z-score),Gal(a1-3)Gal(b1-3)GlcNAc,0.396
same,glycan array binding signal (z-score),[1],0.105
same,glycan array binding signal (z-score),[2],0.08
same,glycan array binding signal (z-score),[3],0.097
same,glycan array binding signal (z-score),[4],0.846
same,glycan array binding signal (z-score),[5],0.328
same,glycan array binding signal (z-score),Gal(a1-3)Gal(b1-4)Glc,-0.391
same,glycan array binding signal (z-score),Gal(a1-3)Gal(b1-4)GlcNAc,-0.342
same,glycan array binding signal (z-score),[6],-0.43
same,glycan array binding signal (z-score),[7],-0.111
same,glycan array binding signal (z-score),[8],0.052
same,glycan array binding signal (z-score),[9],-0.072
same,glycan array binding signal (z-score),[10],-0.414
same,glycan array binding signal (z-score),[11],-0.483
same,glycan array binding signal (z-score),Gal(a1-3)GalNAc,0.122
same,glycan array binding signal (z-score),[12],0.035
same,glycan array binding signal (z-score),[13],0.255
same,glycan array binding signal (z-score),Gal(a1-4)Gal(b1-4)Glc,-0.07
same,glycan array binding signal (z-score),Gal(a1-4)Gal(b1-4)GlcNAc,0.151
same,glycan array binding signal (z-score),[14],0.969
same,glycan array binding signal (z-score),[15],-0.143
same,glycan array binding signal (z-score),Gal(a1-4)GlcNAc,-0.628
same,glycan array binding signal (z-score),Gal(a1-6)Glc,0.059
same,glycan array binding signal (z-score),Gal(b1-2)Gal,-0.365
same,glycan array binding signal (z-score),Gal(b1-3)Gal,-0.026
same,glycan array binding signal (z-score),Gal(b1-3)Gal(b1-4)GlcNAc,-0.287
same,glycan array binding signal (z-score),Gal(b1-3)GalNAc,-0.177
same,glycan array binding signal (z-score),[16],-0.298
same,glycan array binding signal (z-score),[17],-0.341
same,glycan array binding signal (z-score),Gal(b1-3)GalNAc(b1-3)Gal,0.645
same,glycan array binding signal (z-score),[18],-0.387
same,glycan array binding signal (z-score),[19],-0.435
same,glycan array binding signal (z-score),[20],0.145
same,glycan array binding signal (z-score),Gal(b1-3)GlcNAc,-0.2
same,glycan array binding signal (z-score),[21],0.927
same,glycan array binding signal (z-score),[22],-0.177
same,glycan array binding signal (z-score),Gal(b1-3)GlcNAc(b1-2)Man,0.215
